From the supplement of paper PMC4466236
Over roughly 33,000 sequences, “E-score (dimensionless, -0.5 to 0.5)” has its median near -0.058; the highest 2% begin near 0.35. The list shows a part of the results.

Each sequence was assayed on MvaT (assay: PBM 8-mer E-score (mean of HK and ME arrays) (E-score (dimensionless, -0.5 to 0.5)); higher = stronger relative binding preference; most listed sequences are background and not binding sites).
Outline: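 Full-length P. aeruginosa MvaT carrying an N-terminal glutathione S-transferase tag was tested by protein binding microarray following a previously described protocol. Two universal double-stranded 60-mer arrays, ME and HK, were used, each with a constant 25-mer primer region and a variable 35-mer region covering all 8-mers. The rank-based E-score is the mean of the two arrays, parsed with a custom script. Its range runs from -0.5 to 0.5 for each 8-mer.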

| Sequence | PBM 8-mer E-score |
| --- | --- |
| GACGATCC | -0.123 |
| ACGCGGCG | -0.275 |
| ACCTTTCA | 0.0599 |
| TGACGTCA | -0.126 |
| AAACCATG | 0.0813 |
| GTCCTAGA | -0.238 |
| GAACACGC | -0.00574 |
| CTGCTGAC | -0.0566 |
| CTAATCTA | 0.205 |
| AGAACAGC | -0.0238 |
| ATCATAGC | 0.0365 |
| GAACTACC | 0.000847 |
| GTATTTAA | 0.368 |
| ATTTTCCC | 0.0468 |
| CGACTAAG | -0.13 |
| GGCACACC | -0.129 |
| TCTGCAGA | 0.0322 |
| TCTACGAA | -0.149 |
| CCATACTA | 0.12 |
| CTCGTACC | -0.155 |
| ATTTGATA | 0.2 |
| AGCATACT | 0.0488 |
| AGATCTAG | -0.0426 |
| ACAACCTG | -0.038 |
| ATAGATAT | 0.288 |

| Sequence | PBM 8-mer E-score |
| --- | --- |
| ATACACCA | 0.193 |
| AGTGGGAG | -0.192 |
| AGTGTCGC | -0.0462 |
| GCCTCGAC | -0.24 |
| ACGTAAGG | -0.0828 |
| AGCAAGAG | -0.0917 |
| GCATATGC | 0.167 |
| ACGCCGGC | -0.137 |
| ACTGAACA | 0.131 |
| GAGGATAA | 0.181 |
| TACACATA | 0.242 |
| AGGTAGCG | -0.144 |
| AGGGCTGA | -0.191 |
| CTGCTTTC | -0.198 |
| ATGGACAC | -0.056 |
| AAGTAAAT | 0.312 |
| CGGTAGCA | -0.0486 |
| ACGCGGCA | -0.108 |
| AGGGCCGA | -0.21 |
| AAGCATGC | -0.142 |
| AGCTGTGC | -0.156 |
| GAAAAGAA | 0.21 |
| CAGGATGC | -0.251 |
| ACGATCAC | -0.0745 |
| ATGCTGGC | -0.154 |

| Sequence | PBM 8-mer E-score |
| --- | --- |
| CGAAATTC | 0.192 |
| AAGTACCT | 0.051 |
| ACGCCGCG | -0.195 |
| TACGCGGA | -0.0302 |
| AATAGCCC | 0.0938 |
| ATTGGTTA | 0.282 |
| CGGAAATA | 0.19 |
| AACTGCTT | 0.161 |
| CCCGAACA | -0.0758 |
| GGTTGCAA | 0.00272 |
| AGAATGTA | 0.192 |
| GCCCAGCC | -0.24 |
| AAAACGGT | -0.00471 |
| ATTTTGAC | 0.219 |
| CTACCGAC | -0.233 |
| CTGAAACC | -0.139 |
| AAACAAAT | 0.285 |
| GCAAAACC | -0.0546 |
| CAATTACG | 0.257 |
| AATCACAG | 0.00714 |
| ACTGATCC | -0.154 |
| AACCACCC | -0.085 |
| GACTATAA | 0.316 |
| CAGAACGG | -0.135 |
| ACACGTAT | 0.162 |

| Sequence | PBM 8-mer E-score |
| --- | --- |
| CCCTAGAA | -0.00384 |
| CGTCCCGA | -0.155 |
| GTTTGACA | 0.112 |
| CCCGCCGC | -0.27 |
| TGAAAGAA | 0.212 |
| CTGCAGTA | 0.129 |
| TCTAAAAA | 0.156 |
| ACCTTTTC | -0.112 |
| CATCACCA | -0.0625 |
| AAGGGGAG | -0.21 |
| CGGGTAGA | -0.0777 |
| ATTTGCGA | 0.0986 |
| CCTCCACG | -0.204 |
| CCCCGTGC | -0.256 |
| CCTTTATA | 0.193 |
| ACATAACG | 0.183 |
| ACCACTCC | -0.067 |
| AGAAGATG | 0.024 |
| ACAGGTAT | 0.142 |
| AGCCTTTA | -0.0555 |
| GTGCGAAC | 0.00328 |
| ATCGCGGA | 0.00065 |
| CTACAGTC | -0.0562 |
| TACGACAA | 0.131 |
| CGCGTACC | -0.13 |

| Sequence | PBM 8-mer E-score |
| --- | --- |
| AAAAGAAT | 0.323 |
| GACGCGAA | 0.00258 |
| AGATCCGG | -0.188 |
| CCATGTTC | -0.0831 |
| ACGATAGA | -0.0798 |
| ACGCACGT | -0.269 |
| ATTCGGTC | -0.0193 |
| GAGACAGA | -0.0481 |
| CCACTACG | -0.155 |
| GGTGGGCA | -0.0266 |
| AAACGTCA | 0.0875 |
| ACGGACGC | -0.252 |
| ACCGCGCA | -0.202 |
| GTTGGCCA | -0.0756 |
| GAACGAGA | -0.0492 |
| CAACGCGA | -0.169 |
| AGTATCAA | 0.141 |
| CCGCTTCG | -0.265 |
| CGGTTGGA | -0.0551 |
| AACAAGCA | 0.0201 |
| CCGGCGCG | -0.265 |
| TATGTAAA | 0.294 |
| ATCATCAG | -0.0879 |
| TTTACAAA | 0.264 |
| ATTGAAAT | 0.27 |

| Sequence | PBM 8-mer E-score |
| --- | --- |
| AGATGGTG | -0.0311 |
| ATTGCAGG | -0.129 |
| GGAGAATA | 0.086 |
| ACCTCATG | -0.241 |
| GCCGCAGC | -0.272 |
| GTGTCCAA | -0.104 |
| GTAATTAC | 0.393 |
| ACCGTAGC | -0.238 |
| CAGAAGCG | -0.247 |
| CGTGCGGC | -0.234 |
| GTTTTAAA | 0.282 |
| GCGGGTGA | -0.266 |
| GATATTTA | 0.326 |
| CGTCAACC | -0.119 |
| TAGTTGCA | 0.24 |
| ACGCTGGA | -0.245 |
| CTGTTATC | 0.0487 |
| CAGGGAGG | -0.344 |
| CCACGACA | 0.011 |
| CTGTGCTC | -0.127 |
| GAACTCAA | -0.0711 |
| GCACTAAC | -0.0964 |
| GAAAGGGA | -0.197 |
| AGCGGCTG | -0.179 |
| CACAGTCC | -0.0765 |

| Sequence | PBM 8-mer E-score |
| --- | --- |
| AATTTTGT | 0.234 |
| AGCACGAC | -0.255 |
| AATTCAGC | 0.134 |
| ATCCTGGC | -0.173 |
| TAAATACA | 0.35 |
| TCGTGAAA | 0.0158 |
| GGACCCGA | -0.186 |
| GTGACAAA | 0.0215 |
| AACCTTAG | -0.0485 |
| AACTCTCG | 0.00532 |
| TGTGCTAA | 0.0541 |
| GGACTTTA | -0.06 |
| AACGTGCT | -0.0388 |
| AAATAATA | 0.428 |
| GCACCCGA | -0.27 |
| AGACTTAT | 0.182 |
| CCCCGCCA | -0.258 |
| AGTATGCG | 0.127 |
| CAGTTATG | 0.189 |
| AGGCGTCG | -0.268 |
| AGCAGGGG | -0.215 |
| ATGGTGCC | -0.273 |
| ACCAACGG | -0.174 |
| AGCGGTTG | -0.102 |
| CGGCAGAC | -0.106 |

| Sequence | PBM 8-mer E-score |
| --- | --- |
| GCCCTACC | -0.183 |
| CCGCCGTC | -0.117 |
| ATGGAGCA | -0.104 |
| GTTCAAGA | -0.0406 |
| GCCTACCC | -0.193 |
| ATCGGAAA | 0.128 |
| GCGGCATA | 0.0392 |
| AACTCCTC | -0.0536 |
| CAGGCGAG | -0.141 |
| AGGACATC | -0.259 |
| TACTTACA | 0.308 |
| TAATGAAA | 0.258 |
| ATGGTGGG | -0.21 |
| CGCGCAGA | -0.141 |
| ACTGAGCG | -0.119 |
| GGCGTGAA | -0.0221 |
| CAGCGGCA | -0.321 |
| GCGTATCA | -0.013 |
| AAGTCCAC | -0.128 |
| AATCGGAC | -0.186 |
| CCACTGTA | 0.0305 |
| GAATTGAA | 0.137 |
| CTAGCCTC | -0.265 |
| ACCAGTGA | -0.108 |
| CGACTTGA | -0.119 |

| Sequence | PBM 8-mer E-score |
| --- | --- |
| GGCTACAA | 0.0664 |
| ACGAATGA | 0.127 |
| TGACAGCA | -0.0447 |
| ACGACGTG | -0.128 |
| CACACTAG | 0.199 |
| CACACCCC | -0.367 |
| ACATACGT | 0.0286 |
| CTATTTCC | 0.135 |
| CAGACTGA | -0.0264 |
| CGCCTGAA | -0.22 |
| GAATTTAC | 0.204 |
| ACAATGAC | -0.0272 |
| ATAGGTCA | -0.0355 |
| AGGGGGTG | -0.316 |
| ACGGGAAA | 0.102 |
| GACAAGGC | -0.243 |
| ACAGGCTG | -0.178 |
| GCTCGAGC | -0.0527 |
| AATAACTG | 0.318 |
